Assay results from publication PMC4336329 (PLoS ONE, 2015).
Hit rate of the full screen: of about 310,000 compounds, about 14,000 (4.5%) showed an effect of 50% or more. Effects have a minus sign here. The list shows a part of the results.

These compounds were tested against human ether-à-go-go-related gene (hERG) potassium channel (human, UniProt Q12809) (assay: primary screen, population patch clamp on CHO cells stably expressing hERG).
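Also: peak tail current of the secondary pulse compared with the same well before compound.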

Chain of human ether-à-go-go-related gene (hERG) potassium channel (Q12809 whole entry, looked up): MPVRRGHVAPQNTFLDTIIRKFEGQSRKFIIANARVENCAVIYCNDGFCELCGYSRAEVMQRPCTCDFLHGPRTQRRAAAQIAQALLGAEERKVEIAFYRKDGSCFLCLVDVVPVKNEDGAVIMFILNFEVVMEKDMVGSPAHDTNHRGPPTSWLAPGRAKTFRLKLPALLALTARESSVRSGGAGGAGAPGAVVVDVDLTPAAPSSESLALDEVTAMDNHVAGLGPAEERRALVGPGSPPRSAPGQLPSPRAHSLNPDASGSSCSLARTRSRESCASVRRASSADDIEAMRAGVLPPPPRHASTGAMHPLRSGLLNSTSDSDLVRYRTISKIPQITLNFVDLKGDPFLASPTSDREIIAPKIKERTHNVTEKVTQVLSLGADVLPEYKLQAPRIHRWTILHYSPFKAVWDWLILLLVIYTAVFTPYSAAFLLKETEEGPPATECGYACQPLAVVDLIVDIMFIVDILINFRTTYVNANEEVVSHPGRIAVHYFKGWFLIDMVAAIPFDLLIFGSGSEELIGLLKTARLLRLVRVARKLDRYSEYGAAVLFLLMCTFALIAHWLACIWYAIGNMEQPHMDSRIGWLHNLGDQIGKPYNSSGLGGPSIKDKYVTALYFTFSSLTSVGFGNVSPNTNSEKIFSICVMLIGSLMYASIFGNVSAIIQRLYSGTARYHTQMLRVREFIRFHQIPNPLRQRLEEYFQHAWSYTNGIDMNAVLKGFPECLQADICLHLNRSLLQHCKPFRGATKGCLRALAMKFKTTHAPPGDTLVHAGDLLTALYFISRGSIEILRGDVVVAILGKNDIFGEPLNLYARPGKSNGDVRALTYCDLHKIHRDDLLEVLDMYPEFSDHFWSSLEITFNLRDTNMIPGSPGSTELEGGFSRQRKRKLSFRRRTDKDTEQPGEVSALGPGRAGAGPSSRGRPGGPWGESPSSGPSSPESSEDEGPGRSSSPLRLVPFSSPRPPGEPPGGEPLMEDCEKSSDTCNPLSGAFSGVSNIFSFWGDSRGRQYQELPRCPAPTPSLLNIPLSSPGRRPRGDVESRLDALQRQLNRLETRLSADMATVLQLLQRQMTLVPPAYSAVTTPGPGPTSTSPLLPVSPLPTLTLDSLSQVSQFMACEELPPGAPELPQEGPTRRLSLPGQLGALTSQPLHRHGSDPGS

| SMILES | hERG current change (%, negative = inhibition) at 10uM |
| --- | --- |
| COc1ccc(-n2c(SC(C)C(=O)Nc3ccc(NC(C)=O)cc3)nc3ccccc3c2=O)cc1OC (stereo not drawn) | 12.9% |
| CCOc1ccccc1N(CC(=O)NC(C)(C)C)C(=O)c1ccc(CN2CCOCC2)o1 | 16.4% |
| CC1CCc2c(sc(NC(=O)CSc3nc4c(c(C(F)(F)F)n3)CCc3ccccc3-4)c2C(N)=O)C1 (stereo not drawn) | 15.5% |
| O=C(COc1ccc(Cl)cc1)Nc1ccc2c(c1)nc1n2CCOC1 | -34% |
| N#Cc1ccccc1COC(=O)c1cc(=O)c2ccccc2o1 | 11.7% |
| CC1(C)SC(=S)N(/N=C/c2cccnc2)C1N(O)C(=O)Nc1ccccc1 (stereo not drawn) | -5.91% |
| CCOc1ccc(CCNC(=O)COC(=O)c2cccs2)cc1OCC | -39.8% |
| O=C(Oc1ccc(-c2csnn2)cc1)C1CC1 | 1.13% |
| CCN(CC)CCNC(=O)c1ccc(NC(=O)/C=C/c2ccc3ccccc3n2)cc1 | -17.4% |
| O=C(N/N=C1/CCc2ccccc21)C1CC1 | 6.58% |
| O=C(CCl)N1c2ccccc2OCC1c1ccccc1 (stereo not drawn) | -10.7% |
| COc1ccc(Cc2nc(C(=O)Nc3ccc(OC)cc3)cs2)cc1 | 1.39% |
| CCOC(=O)Cn1c(=O)c(-c2ccccc2N)nc2ccccc21 | 3.63% |
| CON(C)c1nc(Oc2ccc(=O)[nH]n2)nc(N(C)C)n1 | -9.3% |
| Cc1c2ccncc2c(C)c2c1[nH]c1ccccc12 | 5.52% |
| CN(C(=O)COC(=O)C1CCN(S(=O)(=O)c2cccs2)CC1)C1CCS(=O)(=O)C1 (stereo not drawn) | -1.99% |
| CCOC(=O)c1nn(-c2ccc(C)cc2)c(=O)cc1OCC(=O)Nc1cccc(C)c1 | 9.15% |
| CN(CCC1CCOCC1)C(=O)C1CCC(=O)N(CCc2ccc(Cl)cc2)C1 (stereo not drawn) | -62% |
| Cn1c(COc2ccccc2)nnc1SCC(=O)NC1CCCC1 | -3.42% |

| SMILES | hERG current change (%, negative = inhibition) at 10uM |
| --- | --- |
| CCc1nnc(NC(=O)CSc2ncc(-c3ccccc3)[nH]2)s1 | 2.52% |
| CCc1cccc(NC(=S)Nc2ccc(CN3CCOCC3)cc2)c1 | -3.92% |
| C=CCNc1sc(C(=O)c2ccc(Br)s2)c(N)c1C#N | 7.52% |
| Cc1sc2c(c1C)C(O)=C(C(=O)Nc1ccccc1)S(=O)(=O)N2C | 4.91% |
| CCCCN(CCCC)/C(N)=N/c1nc(C)cc(C)n1 | -80.2% |
| CC1CCCN(C(=O)CSc2nnc3n(C4CCCC4)c(=O)c4ccccc4n23)C1 (stereo not drawn) | -62.7% |
| COc1cccc(C(=O)Nc2nnc(-c3cccs3)s2)c1 | 9.53% |
| COC(=O)C(=O)N1CC2(C)CNCC(C)(C1)C2=O | 18.5% |
| CCOC(=O)CCNC(=O)c1ccccc1Br | 4.69% |
| COc1ccc(NC(=O)c2c(C)oc3c2CCCC3)cc1 | 3.31% |
| CC(=O)Nc1ccc(-c2nnc(SCC(=O)NCc3ccco3)n2C)cc1 | 13.5% |
| Cc1c(/C=N/NC(=O)c2cc(C(C)(C)C)[nH]n2)c2ccccc2n1C | 5.21% |
| O=C(COc1ccccc1F)NCc1nc2ccccc2[nH]1 | -6.5% |
| COc1ccc(-c2nc(=S)[nH][nH]2)cc1OC | 23.7% |
| CCOC(=O)C1CCCN(C(=O)c2cccc(S(=O)(=O)N(C)c3ccc(C)cc3)c2)C1 (stereo not drawn) | -44.9% |
| CCCNC(=O)c1ccccc1NS(=O)(=O)c1ccc2c(c1)OCCO2 | -1.56% |
| O=C(C1CCN(S(=O)(=O)c2cccc3cccnc23)CC1)N1CCN(c2ccccn2)CC1 | -36.7% |
| COc1ccc(S(=O)(=O)CCC(=O)N2CCN(c3cccc(Cl)c3)CC2)cc1 | -34.8% |
| CC1=C(C(=O)OCc2ccccc2)C(/C=C/c2ccccc2)N2C(=O)CCSC2=N1 (stereo not drawn) | 13.2% |

| SMILES | hERG current change (%, negative = inhibition) at 10uM |
| --- | --- |
| COc1cccc(OCC(O)CN2CCN(C(c3ccccc3)c3ccccc3)CC2)c1.Cl (stereo not drawn) | -43.6% |
| O=C(N=Nc1c(O)[nH]c2ccccc12)c1ccco1 | 13.3% |
| Cc1ccc(NC(=O)c2ccc(F)c(S(=O)(=O)N3CCOCC3)c2)cc1F | -5.11% |
| O=C(CC1C(=O)NCCN1Cc1c(F)cccc1Cl)NCCC1=CCCCC1 (stereo not drawn) | 0.921% |
| COc1ccc(N2C(=O)C(Cl)=C(Nc3ccccc3OC)C2=O)cc1 | 11.5% |
| COc1cc(-c2c(-c3cccc(C)c3)oc3ccccc23)cc(OC)c1OC | 22.2% |
| NC(=O)c1ccsc1NC(=O)COC(=O)c1ccccn1 | -9.57% |
| CC1CCN(CCCNC(=O)CCNC(=O)Cn2cnc3ccccc3c2=O)CC1 | 20.5% |
| COC(=O)c1c(-c2ccccc2)c[nH]c1C | 13% |
| Cc1cccc(COCC(Cc2ccccc2)N2CCN(C(=O)c3ccc(Cl)c(Cl)c3)CCC2=O)c1 (stereo not drawn) | -19% |
| CC(=O)c1c(C(C)=O)c(C)n(-c2nc(-c3ccccc3)c(C)s2)c1C | 2.21% |
| O=C(CSc1ccc2nnc(-c3ccccn3)n2n1)N1CCOCC1 | -24.5% |
| COc1cc(C(=O)Nc2cccc(-c3nncn3C)c2)cc(OC)c1OC | 2.63% |
| O=C1NC2(CCCCC2)C(=O)N1Cc1cccc(C(F)(F)F)c1 | 1.29% |
| Cc1ncoc1C(=O)N1CCCC(C(=O)c2ccc3c4c(cccc24)CC3)C1 (stereo not drawn) | -15.5% |
| COc1ccc2occ(C(=O)c3ccccc3)c2c1 | -15.3% |
| CCn1c(C)nc2cc(C(=O)OCCC(F)(F)F)ccc21 | -24.6% |
| CCC(C)NC(=O)CSC1=Nc2ccccc2C2=NC(CC(=O)NCc3ccc(F)cc3)C(=O)N12 (stereo not drawn) | -11.4% |
| COc1ccc(C(=O)C(CCC(CNC(C)(C)C)C(=O)c2ccc(OC)cc2)CNC(C)(C)C)cc1.Cl (stereo not drawn) | -9.88% |
